The supplement of paper PMC11417369
± gives the standard deviation of the averaged measurements. This is one part of the list.

Tested on: PfAP2-G AP2 domain (GST-tagged)
Test: gcPBM binding intensity (ln(normalized median fluorescence intensity)); higher = stronger DNA binding
How it was run: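 Using an Agilent 4 × 180k array, primer-extended double-stranded 36-bp intergenic genomic probes and negative controls were exposed for 1 h to GST-fused P. falciparum DNA-binding domains expressed in E. coli. Binding was carried out in 1× PBS with 1% milk, 0.2 mg/ml BSA, 0.5% salmon testes DNA and 0.03% Triton X-100, and protein was detected with Alexa488 anti-GST antibody and a 488 nm scan. Binding intensity is the highest Masliner-normalised natural-log median intensity across replicate spots of either probe orientation.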

Sequence	gcPBM binding intensity (ln)
TGCTTATATCTTATAATATTTATACATCATAATAAG [CACACA_negctrl_site629]	9.7 ± 0.11
ACAAAATAAACGGCTGCACACAAGAAGCACAATATT [CACACA_site3690]	10.19 ± 0.064
TTTTTTTTTTTTATATGTACTAATAATCTTTTTTTT [XGTACX_site3552]	11 ± 0.93
GCTGAAAGGATAAAGGTGCATATTTTTTAAAAAATT [GTGCAC_site9487]	10.1 ± 0.24
AATATTTTATATGTAGTGCATTACTATAGGATTTAT [GTGCAC_site9424]	10.3 ± 0.3
ACAATAATTTCCATCACACATATATTTATATATTAC [CACACA_site6003]	10.05 ± 0.078
TTGCATCTACATTTATGTACATATCTTATGATAAAT [XGTACX_site2146]	11.1 ± 0.61
TAACTGATATATAAAACACACATCATAAAAATATAA [CACACA_site6499]	9.835 ± 0.064
ATACATATTCTTATTTGTACTTATTATAAAATGGTC [XGTACX_site6584]	11.2 ± 0.83
TCAAAATGTTACAAATTATGTTGGCTAAAATTTTAA [TGCATGCA_negctrl_site188]	10 ± 0.18
TTGAACCTGATAAATACACACAATATAGATTTTTTT [CACACA_site7091]	9.88 ± 0.057
AATTATACTCACGTTACACACACACTATATATATAT [CACACA_site9375]	10.29 ± 0.092
TATAATATAATATTTTGTACATATGATAAAAAAAAA [XGTACX_site6858]	10.8 ± 0.67
ACACATATAAATAAAACATGCATATGTAAATATATA [TGCATGCA_site403]	9.72 ± 0.2
AGATATATTTTTTAAATTTAAAAATTATAAAATTTA [CACACA_negctrl_site533]	9.655 ± 0.049
AAATATATCTTCTTTGCACACTTAAAGGGAAGTGAT [CACACA_site343]	10.02 ± 0.049
AGAATACATCTATGAACACACAGAGTTTTAAAAAAT [CACACA_site5514]	10 ± 0.17
GTATGTATGTATGTATGTACGTATGTATGTATATAT [XGTACX_site3369]	11.6 ± 0.98
AATAATTATAAAAAATGTACAAAAAAAAAAAAAAAA [XGTACX_site3681]	10.5 ± 0.83

Sequence	gcPBM binding intensity (ln)
TTTTTCATTTAACAGAAGGGAGATAAAAAAAAAAAA [TGCATGCA_negctrl_site261]	9.86 ± 0.3
ATATTATTTTAAAGTACACACATATATTGATATATA [CACACA_site7153]	11.5 ± 1
ATTTTTAATTGAATCACACATTTCCTTTCTTTTGTG [CACACA_site4438]	10.22 ± 0.035
AAAATAATATTTAATACACACATAATTATAATATAA [CACACA_site782]	9.845 ± 0.035
TTAAAAAGAAAGTTCACACACATATATATGACGGAA [CACACA_site2602]	10.14 ± 0.014
ATTAAAAATAAGAAGAGTACATATAATATATATACA [XGTACX_site3092]	11.3 ± 0.83
ACCTTTTGGATTATATGTACATATATATATATATAT [XGTACX_site2687]	11.4 ± 0.79
TTAACATAGATATATACACACCAATGATGGCATTTA [CACACA_site6840]	9.75 ± 0.042
TATATATATATATATATACACACTATATAATTCAAA [CACACA_site1023]	10 ± 0.4
TTTTTTTTTTTTTAGAGTACACACTTTTTTACATTT [XGTACX_site8159]	11.5 ± 1.1
CATAAAATATAAAACACACACACATATATTTATATA [CACACA_site6247]	10.04 ± 0.021
AAATAAAAGTTCACCTGTACACACATATATATATGT [XGTACX_site3513]	11.5 ± 0.66
ATATATAATACTACAGTGCAATATATTATATTTGTT	10.1 ± 0.2
TTCCTCTTAAAATATACACACTGATTTAAGAAAAAA [CACACA_site5770]	9.96 ± 0.28
GCAAATCATGCTATGGTGCATATGTAAGATGAGCAT	9.975 ± 0.078
TTGTGATTATTATATTGTACAATAAGTATTAAAGAA [XGTACX_site2753]	11 ± 0.64
ATACTAAATATAAATTGTACTTTATTTATATTGAGA [XGTACX_site8699]	11 ± 0.81
ATGATACATAAAGAATATAAAACATGAAATATAATA [CACACA_negctrl_site1461]	9.87 ± 0.12
ATTTATTGACTATTTACACACATATTTATTAGAATA [CACACA_site6863]	10.1 ± 0.19

Sequence	gcPBM binding intensity (ln)
GGGAGGATAGTTCACAGTACCCAGTAACTCTACGGA [XGTACX_site2558]	10.8 ± 0.52
TTTTTTACGCATAACTTAATATGAGAATCCCTTTCT [GTGCAC_negctrl_site522]	10.2 ± 0.2
CCACACTTAAAATACACACACACCAAAAAAAAAAAA [CACACA_site2709]	10.1 ± 0.52
AACTGAGAAACCGAAGTGCAATATGTATATATACAT	10.03 ± 0.028
ATATATAATATATATGCATGTGACATTAATAATATA [TGCATGCA_site880]	9.935 ± 0.035
ATATGAAAGGTGTACACACGCACACCCAAAAAAATA [CACACA_site2911]	11.7 ± 0.95
TAATTTAAAAATATAAATGTTTCACTTATATATTTT [TGCATGCA_negctrl_site399]	9.41 ± 0.27
ATTTTTATTTTCTTTACACACCACATAATTTTTTTT [CACACA_site6092]	10.3 ± 0.25
AAAAAAAAAAAAAAAACACACATTTGAAAGAAAGAA [CACACA_site3339]	10.3 ± 0.18
TACACCCATGGACACACACACACGCATAAAAAAAAA [CACACA_site4933]	11.1 ± 0.81
GCCACACTTTTCTGCACACATAAAAAATATATAAAT [CACACA_site578]	10.6 ± 0.57
CATAAGAGGAACTTTTGTACTTATATGTATATAGTA [XGTACX_site5836]	11 ± 0.52
TATATCGTTATATAAACACACAATATGTTTTTTATA [CACACA_site7730]	9.71 ± 0.15
CTTTTATGAAACAGTGCACACATAAAAATATATACA [CACACA_site8981]	10.5 ± 0.35
ATGAACATTTATAAATGTACTCACATATATATATTT [XGTACX_site6692]	11.1 ± 0.73
TTTATATTTATCCAAAGTACTTTTTAAAAACATACC [XGTACX_site4518]	11.1 ± 0.79
AAGTTTTTTATTTTTTGTACATAAAAAATAATAATT [XGTACX_site1755]	11 ± 0.67
TATGTATTTATATATACACACTTCTGTGATACGAAA [CACACA_site5128]	10 ± 0.2
AGATATATATTTTATTGTACACATTAAAGTATAAAA [XGTACX_site7194]	11.5 ± 1.1
